Source: PubChem BioAssay AID686978 (National Center for Advancing Translational Sciences (NCATS), 2013)
Screen size: about 420,000 compounds; about 64,000 (15%) were called active. This list was built around the results that the source calls inconclusive (neither active nor inactive); the mix of calls is not that of the screen. Calls follow the shape of the dose curve; as a rule, active = well fitted inhibition curve with a large enough effect; inconclusive = small, poorly fitted or top-dose-only effect; inactive = flat fitted curve, though single readings scatter. Potencies of inconclusive entries are left out as doubtful fits.

Test: qHTS for Inhibitors of human tyrosyl-DNA phosphodiesterase 1 (TDP1): qHTS in cells in absence of CPT; also: nearly all actives have a fitted effect of over 55% in size
Details: DT40 Tdp1-/- hTDP1 cells, no CPT, ATP luminescence, 48 h; activity change, negative = growth inhibition: at 46.2 µM (top of the series) unless noted
In short: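 Chicken DT40 Tdp1-/- cells stably complemented with human TDP1 were seeded at 400 cells/well with DMSO in place of 20 nM camptothecin. After compound pinning, cells grew at least 48 hr at 37 °C; viability read by CellTiter-Glo luminescence.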
% is scaled to controls: 0 for no effect and ±100 for the full control effect; potency is read from the fitted curve at half-maximal effect; tags tell the direction and shape of the fitted curve.

| Compound | Potency | activity change, negative = growth inhibition |
| --- | --- | --- |
| O=C1NC2(CCC3(CC2)OCCO3)NN1c1ccc(Cl)cc1 | inconclusive [inhibitor, partial curve, poor fit] |  |
| CCCCNC(=O)Nc1ccccn1 | inactive |  |
| CCc1ccc(NC(=O)c2cc(S(=O)(=O)NC3CCCC3)ccc2F)cc1 | active: 16.4 µM |  |
| NC1(C(=O)O)CSSC1 | active: 7.31 µM |  |
| Cc1ccc(NC(=O)c2c(NC(=O)c3ccco3)sc3c2CCC(C(C)(C)C)C3)c(C)c1 (centres undefined) | inactive |  |
| CC1=CC(C)(C)N2C(=O)C3(C(C#N)=C(N)Oc4cc(O)ccc43)c3c(C)c(C)cc1c32 (centres undefined) | inconclusive [inhibitor, single point] |  |
| CCOc1ccc(/C=N/NC(=O)c2cc(-c3ccco3)nc3ccccc23)cc1 | active: 23.1 µM |  |
| COc1cc(S(=O)(=O)N2CCOCC2)cc(C(=O)OCC(=O)NC2CCCCC2)c1OC | inactive |  |
| O=C(NC(=S)Nc1ccc(N2CCOCC2)c(Cl)c1)c1cccs1 | inconclusive [inhibitor, single point] |  |
| C=CCC(C)(NCc1ccccc1)c1ccccc1 (centres undefined) | inconclusive [inhibitor, single point] |  |
| CC(=O)OC1CC(OC(C)=O)[C@]2(C)C(CC(OC(C)=O)[C@]3(C)C2CC[C@@]2(C)C(c4ccoc4)OC(=O)C4O[C@]432)C1(C)C (some centres undefined) | inconclusive [inhibitor, single point] |  |
| CCCOC(=O)Nc1nnc(CCC)s1 | inactive |  |
| COCCN(Cc1cc2cc(C)c(C)cc2nc1Cl)C(=O)Nc1ccccc1 | inconclusive [inhibitor, single point] |  |
| COc1ccc(Br)cc1CNC(=O)Cn1c(=O)c2cccn2c2ccc(F)cc21 | active: 13 µM |  |
| CC(C)c1ccccc1OCCCCCNCCO | inconclusive [inhibitor, partial curve] |  |
| C=CC[C@@H](CC(=O)N(CCO)Cc1ccccc1)C(=O)N[C@@H](COC(=O)[C@@H](CC=C)Cc1ccc(F)cc1)Cc1c[nH]c2ccccc12 | active: 16.4 µM |  |
| COc1ccc(C(=O)Oc2cccc(/C=N/NC(N)=S)c2)cc1 | inconclusive [inhibitor, single point] |  |
| CCOC(=O)C1=C(C)NC2=C(C(=O)C(C(=O)OCC)C(c3ccco3)C2)C1c1ccccn1 (centres undefined) | inconclusive [inhibitor, single point] |  |
| O=C(Cn1ncc2c3ccccc3n(Cc3ccc(Cl)cc3)c2c1=O)N1CCCCCC1 | active: 10.3 µM |  |
| COc1cccc(NC(=O)Nc2cc(NC(=O)Nc3cccc(OC)c3)c(C)nc2C)c1 | inactive |  |
| COc1cccc(-c2cn3c(n2)sc2cc(C(=O)NC4CCCCCC4)ccc23)c1 | inconclusive [inhibitor, partial curve] |  |
| Clc1ccc(CSc2nnc(NC3=NCCCCC3)s2)cc1 | active: 10.3 µM |  |

| Compound | Potency | activity change, negative = growth inhibition |
| --- | --- | --- |
| O=C(Cc1ccc(F)cc1)NC1CC(=O)N(c2ccc3c(c2)OCCO3)C1 (centres undefined) | inconclusive [inhibitor, full curve, poor fit] |  |
| CCOc1ccc(NC(=O)c2oc3ccccc3c2NC(=O)Cc2ccc(F)cc2)cc1 |  | inconclusive: -30.7% [inhibitor] |
| Cc1cc(C)cc(Oc2coc3cc(OC(=O)c4cccnc4)ccc3c2=O)c1 | inconclusive [inhibitor, partial curve] |  |
| CC(C)c1ccc(CN2CCN(C(=O)CCl)CC2)cc1 | active: 0.731 µM |  |
| O=C(NNc1c2ccccc2nc2ccccc12)c1ccccc1Cl | inconclusive [inhibitor, partial curve, poor fit] |  |
| COc1ccc(O)c(/C=N/NC(=S)NCCc2ccccc2)c1 | inconclusive [inhibitor, single point] |  |
| CC(C(c1ccc2c(c1)OCO2)c1c(N)n(C)c(=O)n(C)c1=O)[N+](=O)[O-] (centres undefined) | active: 16.4 µM |  |
| Cc1cc(C)c2oc(-c3cccc(NC(=O)c4ccc(Br)o4)c3)nc2c1 | inconclusive [inhibitor, single point] |  |
| Cc1ccc(Cn2nnc3c(=O)n(CC(=O)N4CCN(c5ccccc5)CC4)cnc32)cc1 | inconclusive [inhibitor, partial curve] |  |
| Cc1ccc(S(=O)(=O)N(CC(=O)Nc2ccccc2C(=O)O)c2cccc(Cl)c2C)cc1 | inconclusive [inhibitor, single point] |  |
| O=C(NCC(c1cccs1)S(=O)(=O)c1cccs1)c1ccccc1F (centres undefined) | inconclusive [inhibitor, partial curve] |  |
| CSC1=NCCN1C(=O)C12CC3CC(CC(C3)C1)C2 | inconclusive [inhibitor, single point] |  |
| COc1cc2nc(N3CCCCC3)nc(NC3CCN(C)CC3)c2cc1OC | active: 7.94 µM |  |
| CCOC(=O)c1cc(-c2ccccc2)sc1NC(=O)COC | inactive |  |
| COc1cc(C(=O)NC2CCN(C)CC2)ccc1Nc1ncc2c(n1)N(C1CCCCC1)CCC(=O)N2C | active: 0.58 µM |  |
| CC(C)(C)c1ccc(S(=O)(=O)N2CCC(c3nc4ccc(Cl)cc4[nH]3)CC2)cc1 | inconclusive [inhibitor, single point] |  |
| CC1(C)C(C#N)=C(N)Oc2c1c(=O)oc1ccccc21 | inconclusive [inhibitor, partial curve] |  |
| Cc1ccccc1NC(=O)CCC(=O)N1CCSc2ccccc21 | inconclusive [inhibitor, partial curve] |  |
| CC(=O)N1c2ccc(S(=O)(=O)NCC3CCC(C(=O)NC(C)(C)C)CC3)cc2CC1C (centres undefined) | inconclusive [inhibitor, single point] |  |
| Cc1ccc(S(=O)(=O)N(CC(=O)Nc2ccc(C(C)C)cc2)Cc2ccccc2)cc1 | inconclusive [inhibitor, partial curve] |  |
| Cc1cccc(NC(=O)CSc2nc(=O)n(CCN3CCOCC3)c3c2CCCC3)c1C | inactive |  |
| O=C(NCC1CCN(C(=O)c2ccc([N+](=O)[O-])cc2)CC1)C(=O)Nc1ccccc1 | active: 20.6 µM |  |
